Where two headings read alike, the source gives them in different places. Residues, ends and D or L forms follow the SMILES beside them.
Legend:
HIV = system: HIV
Experimental: Specifically, MT-4 cells were seeded on a 96-well plate with concentrations of 400,000/ml and incubated at 37°C and under 5% CO2 for 24 hours. The medium was discarded when a cell monolayer was formed. Then a solution containing HIV at 100 TCID50 was added, normal cells and virus infected cells were setup as controls. Cells were incubated at 37°C and under 5% CO2 for 2 hours. […] The drugs were 1:2 diluted into 8 concentrations (i.e. 12000ng/ml~24ng/ml). Diluted drugs were added into wells, 3 wells per concentration. Cells were incubated at 37°C and under 5% CO2 for 5-7 days prior to analyzing viral protein P24 assay. The experiment was performed in triplicate.

293 cells = system: 293 cells
Experimental: The 293 human embryonic kidney cell line (from the Cell Bank of the Chinese Academy of Sciences) was seeded on a 96-well plate with a concentration of 400,000/ml and incubated at 37°C, under 5% CO2 for 24 hours. The test drugs were then added. […] The positive control drug ganciclovir was in a serial dilution of 6000µg/ml to 11.7µg/ml. Cells at each concentration were seeded in 3 wells, 100µl per well, and normal cells were setup as controls. Cells were incubated at 37°C and under 5% CO2 for 6 days. A cytopathic effect (CPE) was observed under an inverted microscope everyday. Morphological change of cells under 25% was defined "+", 26%-50% was defined "++", 51%-75% was defined "+++", and 76%-100% was defined "++++". Toxic dose 50 (TD50) and toxic dose 0 (TD0) of the drugs were calculated by the Reed-Muench method.

[1] = 293 cells, 6 days, CPE method, mean of triplicate experiments

| Molecule | inhibition of HIV-1 (HIV; MT-4 cell cultures, viral P24 assay, result in words) | toxic dose 0 (TD0) (293 cells; [1]) [µg/mL] | toxic dose 50 (TD50) (293 cells; [1]) [µg/mL] | inhibition of HIV-1 (HIV) | toxic dose 0 (TD0) (293 cells) [µg/mL] | toxic dose 50 (TD50) (293 cells) [µg/mL] |
| --- | --- | --- | --- | --- | --- | --- |
| CC(C)C[C@H](NC(=O)[C@H](CCCCN)NC(=O)[C@@H](N)Cc1ccc(O)cc1)C(=O)N1CCC[C@H]1C(=O)NCC(=O)N[C@@H](Cc1c[nH]cn1)C(=O)N[C@@H](Cc1c[nH]cn1)C(=O)N[C@@H](Cc1c[nH]cn1)C(=O)N[C@@H](Cc1c[nH]cn1)C(=O)N[C@@H](Cc1ccc(O)cc1)C(=O)N[C@@H](CCCNC(=N)N)C(=O)N1CCC[C@H]1C(=O)O [AP-9] (H-YKLPGHHHHYRP-OH; N-terminus and C-terminus assumed) | capable of inhibiting HIV-1 | > 1000 ± 0 | > 1000 ± 0 | – | – | – |
| AP-1: high-affinity peptide antagonist targeting HAb18G/CD147, amino acid sequence SEQ ID NO:3 (MTHDPVISLPTT) | – | – | – | not capable of inhibiting HIV-1 | > 1000 ± 0 | > 1000 ± 0 |
| AP-6: high-affinity peptide antagonist targeting HAb18G/CD147, amino acid sequence SEQ ID NO:8 (YPFHHKHWHRPN) | – | – | – | not capable of inhibiting HIV-1 | > 1000 ± 0 | > 1000 ± 0 |
